Further values from the same series stand in other lists.
Key:
Assay in all cases: concentration in plasma after dosing
Rat [1] = conditions: 3 h; dosed: Dibromoacetic acid; 50 mg/kg; oral; Female; F344
Rat [2] = conditions: 0.5 h; dosed: Dibromoacetic acid; 50 mg/kg; oral; Male; Harlan Sprague Dawley
Rat [3] = conditions: dosed: Dibromoacetic acid, 125 mg/kg, oral, Female, Harlan Sprague Dawley
Rat [4] = conditions: dosed: Dibromoacetic acid, 25 mg/kg, iv, Female, F344
Rat [5] = conditions: 10 min; dosed: Dibromoacetic acid; 50 mg/kg; oral; Male; Harlan Sprague Dawley
Rat [6] = conditions: dosed: Dibromoacetic acid, 50 mg/kg, oral, Female, Harlan Sprague Dawley
Rat [7] = tested on: Rat
Rat [8] = conditions: dosed: Dibromoacetic acid, 50 mg/kg, oral, Female, Harlan Sprague Dawley; remark: listed apart in the source
Rat [9] = conditions: 0.5 h; dosed: Dibromoacetic acid; 50 mg/kg; oral; Male; Harlan Sprague Dawley; remark: listed apart in the source
Rat [10] = conditions: dosed: Dibromoacetic acid, 50 mg/kg, oral, Female, Harlan Sprague Dawley; remark: listed apart in the source
Rat [11] = conditions: dosed: Dibromoacetic acid, 25 mg/kg, iv, Female, F344; remark: listed apart in the source
Rat [12] = conditions: dosed: Dibromoacetic acid, 125 mg/kg, oral, Female, Harlan Sprague Dawley; remark: listed apart in the source
Rat [13] = conditions: 5 min; dosed: Dibromoacetic acid; 125 mg/kg; oral; Male; F344
Rat [14] = conditions: 0.5 h; dosed: Dibromoacetic acid; 25 mg/kg; iv; Female; F344
Rat [15] = conditions: dosed: Dibromoacetic acid, 125 mg/kg, oral, Male, F344
Rat [16] = conditions: dosed: Dibromoacetic acid, 25 mg/kg, iv, Male, F344
Rat [17] = conditions: dosed: Dibromoacetic acid, 25 mg/kg, iv, Male, F344; remark: listed apart in the source
Rat [18] = conditions: dosed: Dibromoacetic acid, 25 mg/kg, iv, Male, F344; remark: listed apart in the source
Rat [19] = conditions: dosed: Dibromoacetic acid, 25 mg/kg, iv, Male, F344; remark: listed apart in the source
Rat [20] = conditions: dosed: Dibromoacetic acid, 125 mg/kg, oral, Male, F344; remark: listed apart in the source
Rat [21] = conditions: dosed: Dibromoacetic acid, 25 mg/kg, iv, Male, F344; remark: listed apart in the source
Rat [22] = conditions: dosed: Potassium Perfluorobutane Sulfonate, 4 mg/kg, oral, Female, Harlan Sprague Dawley
Rat [23] = conditions: 12 h; dosed: Potassium Perfluorobutane Sulfonate; 20 mg/kg; oral; Male; Harlan Sprague Dawley
Rat [24] = conditions: 3 h; dosed: Potassium Perfluorobutane Sulfonate; 20 mg/kg; oral; Female; Harlan Sprague Dawley
Rat [25] = conditions: 1.5 h; dosed: Potassium Perfluorobutane Sulfonate; 100 mg/kg; oral; Female; Harlan Sprague Dawley
Rat [26] = conditions: 1.5 h; dosed: Potassium Perfluorobutane Sulfonate; 100 mg/kg; oral; Female; Harlan Sprague Dawley; remark: listed apart in the source
Rat [27] = conditions: 6 h; dosed: Potassium Perfluorobutane Sulfonate; 20 mg/kg; oral; Male; Harlan Sprague Dawley

O=C(O)C(Br)Br [Dibromoacetic acid]
Conditions | concentration in plasma [ng/mL]
Rat [1] | 766
Rat [2] | 42200
Rat [5] | 12100
Rat [9] | 40000
Rat [13] | 56200
Rat [14] | 11400

Conditions | concentration in plasma [ng/mL]
Rat [3], 1 h | 101000
Rat [3], 2 h | 33600
Rat [4], 0.75 h | 5640
Rat [4], 5 min | 52800
Rat [6], 1 h | 25800
Rat [6], 2 h | 6090
Rat [8], 1 h | 19500
Rat [8], 2 h | 9310
Rat [10], 1.5 h | 18800
Rat [10], 20 min | 16900
Rat [11], 0.75 h | 3560
Rat [11], 5 min | 42500
Rat [12], 1 h | 71600
Rat [12], 2 h | 36700
Rat [15], 0.75 h | 46800
Rat [15], 4 h | 7850
Rat [16], 7 min | 49200
Rat [16], 50 min | 5170
Rat [17], 0.75 h | 5340
Rat [17], 5 min | 51900
Rat [18], 2 min | 81500
Rat [18], 40 min | 6510
Rat [19], 2 min | 67300
Rat [19], 40 min | 6470
Rat [20], 0.5 h | 67200
Rat [20], 6 h | 2760
Rat [21], 0.2 h | 27300
Rat [21], 55 min | 2620

concentration in plasma [ng/mL], Rat [7], dosed: Dibromoacetic acid
Conditions | Female | Male
0.2 h, 25 mg/kg, iv, F344 | 26400 | 30700
0.5 h, 25 mg/kg, iv, F344 | 10700 | 14100
0.5 h, 50 mg/kg, oral, Harlan Sprague Dawley | 20900 | 34400
0.5 h, 125 mg/kg, oral, F344 | – | 54700
0.5 h, 125 mg/kg, oral, Harlan Sprague Dawley | 71000 | –
0.75 h, 25 mg/kg, iv, F344 | 5380 | 4700
0.75 h, 50 mg/kg, oral, Harlan Sprague Dawley | 23500 | 23200
0.75 h, 125 mg/kg, oral, F344 | 76400 | 36700
0.75 h, 125 mg/kg, oral, Harlan Sprague Dawley | 118000 | –
1 h, 25 mg/kg, iv, F344 | 1920 | 2010
1 h, 50 mg/kg, oral, Harlan Sprague Dawley | 23600 | 31200
1 h, 125 mg/kg, oral, F344 | – | 75300
1 h, 125 mg/kg, oral, Harlan Sprague Dawley | 98000 | –
1.5 h, 50 mg/kg, oral, Harlan Sprague Dawley | 8890 | 10000
2 h, 50 mg/kg, oral, Harlan Sprague Dawley | 6560 | 8800
2 h, 125 mg/kg, oral, F344 | – | 32100
2 h, 125 mg/kg, oral, Harlan Sprague Dawley | 28800 | –
2 min, 25 mg/kg, iv, F344 | 63500 | 54300
3 h, 50 mg/kg, oral, F344 | 1660 | –
3 h, 50 mg/kg, oral, Harlan Sprague Dawley | 2860 | –
3 h, 125 mg/kg, oral, F344 | – | 14000
3 h, 125 mg/kg, oral, Harlan Sprague Dawley | 10700 | –
4 h, 50 mg/kg, oral, Harlan Sprague Dawley | 1690 | 1990
4 h, 125 mg/kg, oral, F344 | 9720 | 11000
4 h, 125 mg/kg, oral, Harlan Sprague Dawley | 1990 | –
5 min, 25 mg/kg, iv, F344 | 50000 | 46700
5 min, 50 mg/kg, oral, F344 | – | 9140
5 min, 125 mg/kg, oral, F344 | – | 45800
6 h, 50 mg/kg, oral, Harlan Sprague Dawley | 1260 | 123
6 h, 125 mg/kg, oral, F344 | – | 3840
6 h, 125 mg/kg, oral, Harlan Sprague Dawley | 3610 | –
7 min, 25 mg/kg, iv, F344 | 41900 | 44800
8 h, 125 mg/kg, oral, F344 | – | 299
10 min, 50 mg/kg, oral, F344 | 21200 | –
10 min, 50 mg/kg, oral, Harlan Sprague Dawley | 8500 | 17600
10 min, 125 mg/kg, oral, F344 | 57600 | 22900
20 min, 25 mg/kg, iv, F344 | 17800 | 18800
20 min, 50 mg/kg, oral, Harlan Sprague Dawley | 28500 | 43900
20 min, 125 mg/kg, oral, F344 | – | 67400
20 min, 125 mg/kg, oral, Harlan Sprague Dawley | 80100 | –
40 min, 25 mg/kg, iv, F344 | 5190 | 5190
50 min, 25 mg/kg, iv, F344 | 3680 | 4860
55 min, 25 mg/kg, iv, F344 | 2750 | 3750

O=S(=O)([O-])C(F)(F)C(F)(F)C(F)(F)C(F)(F)F.[K+] [Potassium Perfluorobutane Sulfonate]
Rat [22]
Conditions | concentration in plasma [ng/mL]
0.5 h | 8090
9 h | 38.3

concentration in plasma [ng/mL], Rat [7], dosed: Potassium Perfluorobutane Sulfonate, oral
Conditions | 4 mg/kg | 20 mg/kg | 100 mg/kg
0.25 h, Female, Harlan Sprague Dawley | 5690 | 22300 | 78600
0.25 h, Male, Harlan Sprague Dawley | – | – | 87800
0.5 h, Female, Harlan Sprague Dawley | 8210 | 29100 | 131000
0.5 h, Male, Harlan Sprague Dawley | – | 36400 | 174000
0.5 h, Male, Harlan Sprague Dawley - this seems too small | – | 53300 | –
0.75 h, Female, Harlan Sprague Dawley | 9550 | 43900 | 139000
0.75 h, Male, Harlan Sprague Dawley | – | 47800 | 274000
1 h, Female, Harlan Sprague Dawley | 6670 | 33300 | 129000
1 h, Male, Harlan Sprague Dawley | – | 57500 | 196000
1.5 h, Female, Harlan Sprague Dawley | 6760 | 26800 | 93400
1.5 h, Male, Harlan Sprague Dawley | – | – | 168000
3 h, Female, Harlan Sprague Dawley | 2960 | 11300 | 62600
3 h, Male, Harlan Sprague Dawley | – | 61300 | 117000
5 min, Female, Harlan Sprague Dawley | 1600 | 810 | 17100
5 min, Male, Harlan Sprague Dawley | – | 2480 | 31500
6 h, Female, Harlan Sprague Dawley | 838 | 1360 | 50500
6 h, Male, Harlan Sprague Dawley | – | 39200 | 96000
9 h, Female, Harlan Sprague Dawley | 280 | 384 | 2190
9 h, Male, Harlan Sprague Dawley | – | 16400 | 23300
12 h, Female, Harlan Sprague Dawley | 84.2 | 51.1 | 249
12 h, Male, Harlan Sprague Dawley | – | 7820 | 20500
24 h, Female, Harlan Sprague Dawley | 61 | – | –
24 h, Male, Harlan Sprague Dawley | – | – | 1020
48 h, Male, Harlan Sprague Dawley | – | – | 44.8

Conditions | concentration in plasma [ng/mL]
Rat [23] | 11800
Rat [24] | 18200
Rat [25] | 83100
Rat [26] | 96500
Rat [27] | 36300

Reference: EPA's CvTdb concentration-time database
